Results reported in the supplement of paper PMC4723716.
± gives the uncertainty stated by the source. Over roughly 9,900 compounds, “viability index relative to DMSO control” has its median near 1; the lowest 2% begin near 0.85. This is one part of the list.

Each molecule was assayed on Plasmodium falciparum NF54 stage V gametocytes (assay: viability index relative to DMSO control (fraction); higher = less gametocyte killing). Conditions: 2.5 µM, library set: Broad Institute DOS, incubation time: 72 h.
Outline: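 Compound at 2.5 µM was incubated for 72 hr at 37°C under low oxygen with P. falciparum NF54 stage V gametocytes (0.75% gametocytemia, 1.25% hematocrit, 10 µl, serum-free screening medium) in 1,536-well plates. Staining used 3 µl of 2.5 µM MitoTracker Red CMXRos plus 0.13% saponin for one to two hours, and red particles of 20–70 µm2 were counted in one imaged field per well. Each viability index is that count relative to the plate mean of solvent-only wells.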
COc1cccc(C(=O)Nc2ccc3c(c2)OC[C@H](C)N(CCc2ccccc2)C[C@@H](C)[C@H](OC)CN(C)C3=O)c1 was tested, and the viability index was 1.03 ± 0.02.
For O=C(C[C@@H]1C[C@H]2c3cc(NC(=O)c4cccnc4)ccc3O[C@H]2[C@@H](CO)O1)NCc1cc(F)ccc1F, the viability index was 1.09 ± 0.045.
For Cc1ccc(S(=O)(=O)N(C)C[C@@H]2Oc3cc(C#CC4CCCC4)ccc3S(=O)(=O)N([C@@H](C)CO)C[C@@H]2C)cc1, the viability index was 0.837 ± 0.055.
In the case of CN1c2ccc(-c3ccc(F)cc3)cc2[C@H]2[C@H](CCN2C(=O)Cc2cccnc2)[C@H]1CO, the viability index is reported as 1.14 ± 0.081.
In the case of CCCC(=O)Nc1ccc2c(c1)OC[C@H](C)N(CC1CCOCC1)C[C@H](C)[C@H](OC)CN(C)C2=O, the viability index is reported as 1 ± 0.089.
CN(C)C(=O)c1cccc(-c2ccc3c(c2)[C@H]2[C@H](CCN2C(=O)c2cnccn2)[C@H](CO)N3)c1 was tested, and the viability index was 1.1 ± 0.035.
For O=C(C[C@@H]1C[C@H]2c3cc(NC(=O)c4ccc5c(c4)OCO5)ccc3O[C@H]2[C@@H](CO)O1)NCc1ccc(Oc2ccccc2)cc1, the viability index was 1.147 ± 0.0087.
Work on CN(C)CCCNC(=O)C[C@@H]1CC[C@@H]2[C@H](COC[C@H](O)CN2CC2CC2)O1 yielded a viability index of 1 ± 0.088.
COc1ccccc1NC(=O)N1[C@H](CO)[C@@H](c2ccccc2)[C@@H]1C#N was tested, and the viability index was 1.056 ± 0.0046.
In the case of O=C(C[C@H]1C[C@@H]2c3cc(NC(=O)Nc4ccccc4F)ccc3O[C@@H]2[C@H](CO)O1)NCc1ccccn1, the viability index is reported as 1.05 ± 0.048.
CN1CCN(C(=O)c2cc3c(c(-c4cccc(C5=CCCC5)c4)n2)[C@H](CCO)N([S@@](=O)C(C)(C)C)C3)CC1 showed a viability index of 0.927 ± 0.032.
For O=C(NC[C@@H]1N[C@@H](CO)[C@H]1c1ccccc1)c1ccccc1F, the viability index was 0.9305 ± 0.0066.
Cc1noc(C)c1NC(=O)N[C@H]1C=C[C@@H](CC(=O)Nc2ccc(-c3ccccc3)cc2)O[C@@H]1CO was tested, and the viability index was 1.013 ± 0.0059.
Cc1noc(C)c1S(=O)(=O)Nc1ccc2c(c1)C(=O)N([C@@H](C)CO)C[C@@H](C)[C@H](CN(C)Cc1ccc(C(=O)O)cc1)OCCCC[C@H](C)O2 showed a viability index of 1.17 ± 0.051.
With O=C(Nc1ccccc1)[C@@H]1[C@@H](CO)[C@@H]2Cn3c(cccc3=O)[C@H]1N2C(=O)c1ccc(F)cc1 the viability index was 1.04 ± 0.1.
COc1cccc(C(=O)Nc2ccc3c(c2)OC[C@@H](C)N(CCc2ccccc2)C[C@@H](C)[C@@H](OC)CN(C)C3=O)c1 gave a viability index of 1.08 ± 0.038.
Work on COc1cccc(S(=O)(=O)Nc2ccc3c(c2)[C@H]2C[C@H](CC(=O)NC4CCCCC4)O[C@H](CO)[C@H]2O3)c1 yielded a viability index of 1.09 ± 0.011.
For CN1C(=O)c2cc(NC(=O)C3CCOCC3)ccc2OC[C@@H]2O[C@@H](CC(=O)NCc3ccccc3F)CC[C@@H]21, the viability index was 1 ± 0.069.
CN1C(=O)c2cc(NC(=O)c3ccc(C(F)(F)F)cc3)ccc2OC[C@@H]2O[C@H](CC(=O)NCc3ccc4c(c3)OCO4)CC[C@@H]21 was tested, and the viability index was 0.979 ± 0.013.
Work on C[C@@H]1CN([C@H](C)CO)C(=O)CCCn2nncc2CO[C@@H]1CN(C)C(=O)c1ccc2ccn(C)c2c1 yielded a viability index of 1.07 ± 0.092.
In the case of CC(C)[C@@H]1COCc2cn(nn2)CCC[C@@H](C)C(=O)N1, the viability index is reported as 1.02 ± 0.03.
In the case of O=C(Nc1nccs1)[C@H]1[C@H](CO)[C@H]2Cn3c(ccc(-c4cncnc4)c3=O)[C@H]2N1CC1CCCC1, the viability index is reported as 1.01 ± 0.13.
C[C@@H]1CN([C@H](C)CO)C(=O)c2c(c3ccccc3n2C)-c2ccccc2CO[C@H]1CN(C)S(=O)(=O)c1ccc([N+](=O)[O-])cc1 gave a viability index of 0.993 ± 0.058.
C/C=C/c1ccccc1[C@H]1[C@H](C#N)N(C(=O)c2cccnc2)[C@H]1CO showed a viability index of 1.035 ± 0.0044.
In the case of C[C@@H]1CN([C@H](C)CO)C(=O)c2cc(N(C)C)ccc2O[C@H]1CN(C)Cc1ccc(Oc2ccccc2)cc1, the viability index is reported as 0.953 ± 0.069.
Molecule COc1ccccc1CN1[C@H](CO)[C@H]2c3ccccc3N(C(=O)c3cccnc3)C[C@H]21 has a viability index of 1.06 ± 0.084.
With C[C@H]1CN([C@@H](C)CO)C(=O)CCCn2nncc2CO[C@@H]1CN(C)S(=O)(=O)c1ccccc1C#N the viability index was 1.01 ± 0.019.
In the case of COCC#Cc1ccc([C@H]2[C@@H](CO)N3C(=O)CN(C(=O)CN4CCOCC4)C[C@H]23)cc1, the viability index is reported as 1.03 ± 0.077.
With CO[C@H](CN(C)C(=O)c1cc(Cl)cc(Cl)c1)[C@H](C)CN(C(=O)Nc1ccc(F)cc1)[C@@H](C)CO the viability index was 1.06 ± 0.053.
CN1C(=O)c2cc(NC(=O)Nc3ccccc3F)ccc2OC[C@H]2O[C@H](CC(=O)NCCc3ccncc3)CC[C@H]21 showed a viability index of 1.08 ± 0.053.
O=C(Nc1ccc2c(c1)[C@@H]1C[C@H](CC(=O)N3CCOCC3)O[C@@H](CO)[C@@H]1O2)Nc1ccccc1F showed a viability index of 1.12 ± 0.019.
In the case of O=C(CN1CCOCC1)N[C@@H]1CC[C@@H](CCn2cc(C3CC3)nn2)O[C@H]1CO, the viability index is reported as 1.17 ± 0.12.
With CO[C@H]1CN(C)C(=O)c2cc(NS(=O)(=O)c3ccc(Cl)cc3)ccc2OC[C@@H](C)N(C(=O)NC(C)C)C[C@@H]1C the viability index was 1.1 ± 0.0095.
In the case of C/C=C/c1ccc2n(c1=O)C[C@@H]1[C@@H](CO)[C@H](C(=O)NCCc3cn(C)cn3)[C@H]2N1C(=O)C1CCC1.C/C=C\c1ccc2n(c1=O)C[C@@H]1[C@@H](CO)[C@H](C(=O)NCCc3cn(C)cn3)[C@H]2N1C(=O)C1CCC1, the viability index is reported as 1.05 ± 0.029.
N#C[C@@H]1[C@@H](c2ccccc2C2=CCCCC2)[C@@H](CO)N1S(=O)(=O)c1ccccc1 showed a viability index of 1.1 ± 0.075.
In the case of CN1C(=O)c2cc(NC(=O)c3cccc(C(F)(F)F)c3)ccc2OC[C@H]2O[C@H](CC(=O)NCCN3CCCC3)CC[C@@H]21, the viability index is reported as 1.028 ± 0.0042.
N#C[C@@H]1N[C@H](CO)[C@@H]1c1ccc(/C=C/c2ccccc2)cc1 gave a viability index of 1.06 ± 0.078.
CCCNC(=O)Nc1ccc2c(c1)C(=O)N(C)C[C@@H](OC)[C@H](C)CN(C)[C@@H](C)CO2 was tested, and the viability index was 1.08 ± 0.12.
O=C(Nc1cc(F)ccc1F)N[C@@H]1CC[C@H](CC(=O)N2CCc3ccccc3C2)O[C@@H]1CO was tested, and the viability index was 1 ± 0.033.
O=C(Nc1nccs1)[C@H]1[C@H](CO)[C@H]2Cn3c(cccc3=O)[C@@H]1N2C(=O)C1CC1 showed a viability index of 0.933 ± 0.011.
CC[C@@H]1C/C=C\CCNC(=O)CCC(=O)N1 gave a viability index of 1.02 ± 0.02.
With CCC(=O)N1C[C@H](C)[C@@H](OC)CN(C)C(=O)c2ccc(NC(=O)CC(F)(F)F)cc2OC[C@H]1C the viability index was 1.051 ± 0.0091.
Cc1cc(C(=O)Nc2ccc3c(c2)C(=O)N(C)[C@@H]2CC[C@H](CC(=O)O)O[C@H]2CO3)no1 gave a viability index of 0.915 ± 0.11.
With COc1ccc2c3c([C@H](CO)N(C[C@]33CCN(C)CC3)C(=O)NC3CCCCC3)n(C)c2c1 the viability index was 0.976 ± 0.091.
